Measurements: PubChem BioAssay AID493208 (National Center for Advancing Translational Sciences (NCATS), 2011)
Hit rate of the full screen: of about 44,000 compounds, about 340 (0.77%) were called active. Not shown: some 5% with an inconclusive outcome. Calls follow the shape of the dose curve; as a rule, active = well fitted inhibition curve with a large enough effect; inconclusive = small, poorly fitted or top-dose-only effect; inactive = flat fitted curve, though single readings scatter. Some of the results follow.

test: Acumen qHTS Assay for Inhibitors of the mTORC1 Signaling Pathway in MEF (Tsc2-/-, p53-/-) Cells: Sytravon; details: phospho-rpS6 immunofluorescence/PI, 24 h; series mostly up to 38.3 µM; activity change, negative = inhibition: at the top concentration;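 also: plate controls were DMSO for no effect and rapamycin for full effect; nearly all actives have a fitted effect of over 50% in size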
How it was run: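 Tsc2-/-, p53-/- MEFs (empty-vector stable line) in DMEM + 10% FBS were treated with compounds 24 h at 37 degree Celsius, fixed, and immunostained for phospho-rpS6 (Alexa-488) with propidium iodide counterstain. Laser-scanning cytometry gave % positive cells, normalized against 7.5 nM rapamycin and DMSO.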

Activity change, negative = inhibition, inactive:
CCN(c1ccccc1)S(=O)(=O)c1ccc(NC(=O)c2cc(=O)c3ccc(C)c(C)c3o2)cc1 -0.137%, Cc1ccc2c(CC(=O)Nc3c(C(=O)c4ccc(F)cc4)oc4ccccc34)coc2c1 3.24%, CCC(=O)OCc1cnc(C)c2oc(=O)c(C(=O)Nc3ccc(CC)cc3)cc12 5.3%, COc1ccc(-c2nc3c(c(SCc4cc(C)ccc4C)n2)Cc2c(CO)cnc(C)c2O3)cc1 2.56%, COc1ccc(N2CCN(C(=O)c3nn(C)c4c3CS(=O)(=O)c3ccccc3-4)CC2)cc1 6.69%, COc1ccc(CCNC(=O)CS(=O)Cc2nc(-c3ccc(C)cc3)oc2C)cc1OC (stereo unspecified) 0.857%, O=C(CCSCc1ccc(Cl)cc1)N1CCN(c2ccccc2F)CC1 -14.9%, COc1ccccc1Nc1nn2c(=O)c3ccc(C(=O)Nc4ccc(F)cc4)cc3nc2s1 -18.5%, NC(=O)c1cc(S(=O)(=O)NCc2ccc(Br)cc2)cs1 -3.39%, CCOc1ccc2oc(=O)cc(CN3CCN(C(=O)c4cccc(F)c4)CC3)c2c1 1.61%, CCCN(CCC)CCNC(=O)Cn1ncc2c([nH]c3ccc(C)cc32)c1=O 0.811%, CCOC(=O)c1ccc(NC(=O)CCc2c(C)n(CC)c3cc(-c4ccccc4OC)nn3c2=O)cc1 -16.9%, CCOC(=O)c1[nH]c(C)c(CCC(=O)NCc2ccc(C)cc2)c1C 6.08%, CCc1cccc(-n2c(=O)c3cccnc3n2CC(=O)NCc2ccccc2Cl)c1 5.96%, COc1ccc(N2CCN(C(=O)c3ccc(NC(=O)c4nsc5ccccc45)cc3)CC2)cc1 1.28%, O=C(/C=C\c1ccc2c(c1)OCO2)NC1CC(=O)N(c2ccc(F)cc2)C1 (stereo unspecified) -0.155%, CCOCCCNC(=O)c1cc2c(=O)n3ccccc3nc2s1 -16.3%, CC(C)(C)c1ccc(C(=O)Nc2cc(-c3ccccc3)nn2-c2ccccc2)cc1 5.72%, Cc1ccc(C)c(N2CCN(C(=O)c3cc4cc5ccc(C)cc5nc4s3)CC2)c1 1.71%, Cc1ccc(CNc2nc3c(S(=O)(=O)c4ccc(C)c(C)c4)nnn3c3ccc(Cl)cc23)cc1 0.117%, Cc1ccc(CSc2oc(-c3ccco3)nc2S(=O)(=O)c2ccc(Br)cc2)cc1 -14%, CC1CCN(C(=O)CSc2nc3c([nH]c4ccccc43)c(=O)n2-c2ccccc2)CC1 5.68%, O=C(CN1CCN(c2ccc(Cl)cc2)CC1)Nc1ccc(Cl)c(C(F)(F)F)c1 0%, Cc1ccc(CNC(=O)CCn2ccc3cc(S(=O)(=O)N4CCCC4)ccc32)cc1 -9.05%, CCOc1ccc(-n2c(=O)c3c4c(sc3n(Cc3cc(=O)n5cc(Cl)ccc5n3)c2=O)CCC4)cc1 0.21%, CCc1ccc(NC(=O)Cn2c(=O)n(Cc3nc(C)no3)c(=O)c3cc4c(cc32)OCO4)cc1 1.11%, COc1ccccc1NC(=O)CSc1nnc(-c2nonc2NC(C)=O)n1-c1ccccc1 -11.8%, Cc1ccc(CN2CCC(CNC(=O)c3cnn(-c4ccccc4)c3C3CCN(C(=O)OC(C)(C)C)CC3)CC2)cc1 1.35%, Cc1ccc2c(c1)C(=O)C(=O)N2Cc1ccc(OCCC(C)C)cc1 -12.8%, COc1ccc(NC(=O)c2cc(C(C)=O)n3ccccc23)cc1 7.36%, COc1ccc(NC(=O)c2oc3ccc(S(=O)(=O)N4CCCCC4)cc3c2C)cc1Cl 11.5%, Cc1ccc2nc(NC(=O)c3nc(SCc4ccccc4F)ncc3Cl)sc2c1 0.759%, CSc1ncc(Cl)c(C(=O)Nc2cc(C(F)(F)F)ccc2Cl)n1 -6.08%, COc1cc2c(=O)n(Cc3ccco3)c(=O)n(CC(=O)Nc3ccc(F)cc3)c2cc1OC 2.9%, CCOc1cc2[nH]c(=O)n(Cc3ccc(C(=O)N4CCN(c5ccccc5)CC4)cc3)c(=O)c2cc1OCC 0.123%, Cc1nc(-c2ccc(Cl)cc2)sc1CCNC(=O)C(=O)Nc1ccc2c(c1)OCCO2 1.01%, O=C(CSc1nc(=O)n(Cc2cccnc2)c2c1CCC2)Nc1cccc(Cl)c1 -4.16%, O=C(O)c1ccc(NCc2nc3ccccc3n2CCOc2ccccc2Cl)cc1 1.15%, CCOC(=O)N1CCC(NC(=O)c2cnn(-c3ccc(F)cc3)c2-n2cccc2)CC1 1.73%, COc1ccc(N(C)C(=O)c2nn(-c3ccc(C)cc3)c(=O)n(C)c2=O)c(OC)c1 -2.07%, Cc1cc(C)cc(NC(=O)N2CCC(C(N)=O)(N3CCCCC3)CC2)c1 0.338%, COc1ccc(CNC(=O)CC(C)n2nc(C)cc2C)cc1 (stereo unspecified) 0%, COc1ccc(N2CC(NC(=O)C(=O)c3c[nH]c4ccccc34)CC2=O)cc1 (stereo unspecified) 0.257%, Cc1ccc(-c2nn(-c3ccc(F)cc3F)c3c2cnc2ccc(F)cc23)cc1 0%, O=C(CSc1ncc2c(n1)-c1cc(Cl)ccc1N(Cc1ccccc1)S2(=O)=O)Nc1ccc(F)cc1F 11.7%, CC(C)Oc1ccc(C(=O)N2CCN(c3nc4c(F)cc(F)cc4s3)CC2)cc1 -1.4%
